These results are taken from ChEMBL document CHEMBL4888484, “Replenishing the malaria drug discovery pipeline: Screening and hit evaluation of the MMV Hit Generation Library 1 (HGL1) against asexual blood stage Plasmodium falciparum ,using a nano luciferase reporter read-out” (2022).

SMILES strings stand for the structures. The whole screen tested about 150,000 compounds, of which about 540 (0.36%) showed an effect of 50% or more. The list shows a part of the results.

This assay deals with Plasmodium falciparum. In words: Primary screen in NF54 nanoGlo assay, in single point, at 2uM, 72h; a lower Z score goes with more inhibition. The assay is classed as functional, Erythrocyte. The settings on record: timepoint 72 hour.
With `CC(C)OCCCC(=O)Nc1cnccn1`, the “% Inhibition” value is -10% and the Z score was determined as 1.02.

On to `CCC1CN(C(=O)OCc2ccccc2)C(CC)CN1` (stereo unspecified), for which the “% Inhibition” value was -4% and the Z score was determined as 0.7.

Turning to `CN(C[C@H]1CCCO1)C(=O)CCc1cncs1`, the “% Inhibition” value is reported as -9% and the Z score came to 1.21.

For the molecule `C[C@@H](C(=O)N1CCCCC1)N1CCN(Cc2ccc(CO)o2)CC1`, the “% Inhibition” value is -14% and the Z score is 1.75.

Turning to `Clc1ccc(CN(CCCN2CCOCC2)C2CCOCC2)cc1`, the “% Inhibition” value was -2% and the Z score worked out at 0.23.

`O=C(Nc1ccc(F)cn1)[C@@H]1CCCN[C@@H]1C1CC1`: the “% Inhibition” value is -3% and the Z score turned out to be 0.55.

In the case of `COc1ccccc1-c1ccc(C(=O)NCCN2CCOCC2)c(N2CCC(N3CCC[C@H](CO)C3)CC2)n1`, the “% Inhibition” value is given as -3% and the Z score is recorded as 0.6.

Consider `Cn1cnc(C(=O)N2CC[C@H](Cc3nnc(C4CCOCC4)o3)C2)c1`, for which the “% Inhibition” value was 1% and the Z score is given as -0.11.

In the case of `COC(=O)c1ccc(N2CCN(c3nc(CO)cs3)CC2)cc1`, the “% Inhibition” value is on record as -2% and the Z score was 0.23.

Consider `O=C1O[C@H](C(=O)Nc2ccc(Cl)cc2-n2cccn2)Cc2ccccc21`, for which the “% Inhibition” value is reported as -5% and the Z score was 0.52.

Regarding `CN(Cc1ccco1)Cc1nnc(-c2ccc(Cl)cc2)o1`, the “% Inhibition” value was -8% and the Z score is listed as 0.96.

With `CC(C)c1nc(CCN(C)C(=O)c2cc(Cl)c[nH]2)no1`, the “% Inhibition” value was -12% and the Z score is listed as 1.74.

Take `O=C(Cn1cnc(-c2nc(-c3ccccc3)cs2)c1)Nc1ccc(F)cc1`: the “% Inhibition” value was -8% and the Z score is 0.99.

Consider `Cc1cc(C)n(Cc2cccc(F)c2)c1C(=O)NCc1cccc(C(F)(F)F)c1`, for which the “% Inhibition” value stood at 0% and the Z score is -0.02.

Regarding `COc1cccc(C(=O)N(Cc2cc(-c3ccc(OC)cc3OC)on2)C2CC2)c1`, the “% Inhibition” value came to 29% and the Z score is recorded as -3.91.

For the molecule `CC[C@H]1C(=O)NCCN1Cc1snc(OC)c1Br`, the “% Inhibition” value is reported as -4% and the Z score amounted to 0.6.

For the molecule `CCOc1nnc(CN(C)[C@H]2CCc3ccccc3C2)s1`, the “% Inhibition” value is -13% and the Z score is 2.06.

For the molecule `CCCc1nc(Cn2ccc([C@H](C)O)n2)cs1`, the “% Inhibition” value was -5% and the Z score came out at 0.65.

In the case of `CCOC(=O)N1CCN(C(=O)c2cccc(N(C)C)c2)CC1`, the “% Inhibition” value was -1% and the Z score was found to be 0.2.

Turning to `CCCc1cc(N2CCC(CCCN3CCOCC3)CC2)n2ncnc2n1`, the “% Inhibition” value is -5% and the Z score amounted to 0.77.

Regarding `CCS(=O)(=O)NCCNC(=O)C(F)=C1CCC1`, the “% Inhibition” value is -10% and the Z score turned out to be 1.52.

As to `Cc1ccc(CN2C(=O)CC(c3ccc(C)cc3)CC2=O)cc1`, the “% Inhibition” value was 4% and the Z score was -0.59.

In the case of `O=S(=O)(CCCF)N[C@H]1CCN(c2ccc(Cl)c(F)c2)C1`, the “% Inhibition” value was -4% and the Z score was 0.5.

Take `Cc1csc([C@H](C)NC(=O)c2cn(C3CCCCC3)nn2)n1`: the “% Inhibition” value was determined as 1% and the Z score was -0.16.

For the molecule `Cc1ccc(NC(=O)c2ccnc(-n3cccn3)c2)cc1-c1ncco1`, the “% Inhibition” value is given as -4% and the Z score is 0.64.

With `CCOC1CC(N(C)CCc2cnn(C)c2)C12CCC2` (stereo unspecified), the “% Inhibition” value was determined as 22% and the Z score is -3.46.

For the molecule `CCOc1ccc(-c2nc(Cn3nnc(C(=O)NCc4ccc(OC)cc4)c3N)c(C)o2)cc1OC`, the “% Inhibition” value is -5% and the Z score amounted to 0.72.

Regarding `CN(C)c1nccc(N2CCO[C@@H](Cn3cccn3)C2)n1`, the “% Inhibition” value was 24% and the Z score is reported as -2.75.

In the case of `CCc1ccc(O)c(C(=O)N[C@H]2CC23CCNCC3)c1`, the “% Inhibition” value was 5% and the Z score is on record as -0.98.

As to `CC(C1CC1)n1cc(NC(=O)N[C@H]2CCO[C@@H]2c2cnn(C)c2)cn1` (stereo partly specified), the “% Inhibition” value is given as -10% and the Z score was determined as 1.33.

Regarding `CCCN1C=NS(=O)(=O)c2cc(C(=O)NCCC(C)C)ccc21`, the “% Inhibition” value is -8% and the Z score is 1.35.

With `Cc1ccnc(-n2cccc2CN2CCN(c3nccnc3C#N)CC2)c1`, the “% Inhibition” value was 2% and the Z score is reported as -0.23.

Consider `C[C@H]1CCCCN1C1CN(c2ncnc3c2CCC3)C1`, for which the “% Inhibition” value is listed as -15% and the Z score is 2.1.

As for `CC(C)c1noc(N2CCC3CCC(C2)N3C(C)C)n1` (stereo unspecified), the “% Inhibition” value is reported as -7% and the Z score is reported as 0.8.

On to `COC(=O)CCN1C[C@H](OCc2cccc(OC)c2)CN(C(=O)Cn2ccc(C)n2)CC1=O`, for which the “% Inhibition” value was 2% and the Z score is reported as -0.32.

For `COc1cc(-c2noc(-c3ccc(C)cc3)n2)ccc1OCC(=O)NC1CCCC1`, the “% Inhibition” value is given as -11% and the Z score was determined as 2.04.

Regarding `CC1CCC(N2CC(C(=O)OCC3CCCCO3)CC2=O)CC1` (stereo unspecified), the “% Inhibition” value is given as -4% and the Z score is on record as 0.4.

As to `Cc1n[nH]c(C)c1CC(=O)NC1CCCC1(C)CO` (stereo unspecified), the “% Inhibition” value was -1% and the Z score is given as 0.12.

`C=C(C)CS(=O)(=O)N1C[C@H](C)Oc2ccc(OC)cc21`: the “% Inhibition” value worked out at 4% and the Z score is recorded as -0.68.

As to `CCn1nccc1C(=O)N1CC2(C[C@H](N3CCOCC3)CO2)C1`, the “% Inhibition” value is -16% and the Z score was determined as 2.42.

With `CC1CC(Nc2cccc(COCCc3ccccc3)c2)C(=O)O1` (stereo unspecified), the “% Inhibition” value was -5% and the Z score is on record as 0.5.

`CCn1ccnc1CN1CCc2ccc(F)c(C(=O)O)c2C1`: the “% Inhibition” value was 3% and the Z score is on record as -0.44.

For the molecule `CC(C)c1nc(-c2cc(-n3cnnn3)ccc2O)n(-c2ccccn2)n1`, the “% Inhibition” value is listed as -2% and the Z score is 0.32.

One may read the % Inhibition as the drop in the measured response relative to a control, in per cent.
